From the RNAGym collection of RNA variant scans (doi:10.7554/elife.90254)
The source gives no read counts; variants with many changes may rest on few reads.

B1: LINE1-mini (parent)
chain: GGCAGAGCUCAACACAGCGUGGCAAAGUGGCUGUGGCUAGACUGCC

Variants of: B1
Assay: self-cleavage, relative activity (ratio to wild type); higher = more cleavage; in vitro, sequencing; the parent is a self-cleaving ribozyme
For G5C C10A C45G, the self-cleavage was 0.01.
With G5C G7A C10G C13U G30A the self-cleavage was 0.03.
Work on G5U A6U C13G U38A C45A yielded a self-cleavage of 0.05.
Variant G5C G17U U28C C42G has a self-cleavage of 0.59.
With G5C C8A C37A U38C the self-cleavage was 0.37.
In the case of G5C C8G U32G G33U U43A, the self-cleavage is reported as 0.03.
G5U A6C G21C G29C G35A C45U showed a self-cleavage of 0.05.
G5C C8A G22C gave a self-cleavage of 0.05.
Work on G5C G22A G27A yielded a self-cleavage of 0.06.
Variant G5C U20G G35C has a self-cleavage of 0.17.
G5U A12C C13U G17U C42U U43C gave a self-cleavage of 0.01.
Work on G5C U20C C23A A25G A41C yielded a self-cleavage of 0.06.
G5C C15A U20G U28G U43C G44A showed a self-cleavage of 0.
G5C G27U C42U gave a self-cleavage of 0.02.
In the case of G5C U34G C42G, the self-cleavage is reported as 0.03.
Work on G5C G21U G27A yielded a self-cleavage of 0.07.
Work on G5C C18A U20G yielded a self-cleavage of 0.02.
Variant G5U A11G U32A U34C has a self-cleavage of 0.01.
G5U A11C G22U A24U G36U C45G showed a self-cleavage of 0.01.
For G5C C31A U43G, the self-cleavage was 0.07.
G5C G29U G33U G40C showed a self-cleavage of 0.03.
With G5C G29C G35U U38C G44U the self-cleavage was 0.01.
Work on G5U A11U U43C C46G yielded a self-cleavage of 0.03.
G5C C10U C23A gave a self-cleavage of 0.04.
With G5C G17C G21U G30A C31G C37A A41C the self-cleavage was 0.02.
Variant G5C C13A U34G has a self-cleavage of 0.01.
Variant G5C G7U U38G has a self-cleavage of 0.03.
Variant G5C G7A C31U A39C has a self-cleavage of 0.03.
With G5C G35A G36A C46A the self-cleavage was 0.05.
G5C C10A U34G A41G showed a self-cleavage of 0.
G5C G17A U32C A39U gave a self-cleavage of 0.01.
With G5C U9A C10G G21C C23U C37A the self-cleavage was 0.02.
With G5C C15U G29U the self-cleavage was 0.03.
Work on G5C C8U G44A yielded a self-cleavage of 0.25.
With G5C G7U A16U U28C the self-cleavage was 0.4.
For G5U A6G G27U G30A, the self-cleavage was 0.11.
In the case of G5C C10A U32A A41U, the self-cleavage is reported as 0.02.
Variant G5C U9A A14G G27A C42U has a self-cleavage of 0.18.
For G5C C10U G21U, the self-cleavage was 0.03.
With G5C G17C G35A G40U the self-cleavage was 0.01.
In the case of G5C G22U A24C, the self-cleavage is reported as 0.02.
G5U A11U C15U G30C U43G C45U showed a self-cleavage of 0.
With G5C C18A A24C G40A the self-cleavage was 0.06.
G5C C8G G27C gave a self-cleavage of 0.04.
Variant G5C U38A C42A has a self-cleavage of 0.03.
With G5C C37A G40A A41U the self-cleavage was 0.03.
G5C G22C G33A U34C showed a self-cleavage of 0.
For G5C G7U C15G G21C A25U G35C C46U, the self-cleavage was 0.24.
For G5C C15A C42U U43A, the self-cleavage was 0.01.
Variant G5U A11C C13U G27U G29A G30U has a self-cleavage of 0.01.
For G5C C8U G19U U28C, the self-cleavage was 0.05.
With G5C G19C G21C U28A G36C the self-cleavage was 0.03.
G5U A6C G29U G35A showed a self-cleavage of 0.22.
Variant G5C U9A C23G U34A C42U has a self-cleavage of 0.04.
G5C C10A G22U G35C showed a self-cleavage of 0.04.
Variant G5U A6C C10G G17U G44C has a self-cleavage of 0.
Variant G5C G21U A24G has a self-cleavage of 0.08.
In the case of G5C G22A U34G, the self-cleavage is reported as 0.06.
In the case of G5C U32G C42A, the self-cleavage is reported as 0.21.
G5C C10A U20A gave a self-cleavage of 0.02.
With G5U A11U C15A G19C A41C the self-cleavage was 0.01.
G5C C8A A11C gave a self-cleavage of 0.
With G5C G30C G35A G44A the self-cleavage was 0.01.
G5C G22C G36C showed a self-cleavage of 0.01.
Variant G5C G7U G17C A39U has a self-cleavage of 0.78.
Variant G5C C10G U20C A25C has a self-cleavage of 0.01.
G5C U20A G22A G40C showed a self-cleavage of 0.06.
Variant G5C C18U G21C has a self-cleavage of 0.03.
Variant G5C C18A C31U C45G has a self-cleavage of 0.03.
With G5C U20A C45A the self-cleavage was 0.38.
G5U A11U G22A A24C A39U C42U U43G showed a self-cleavage of 0.
In the case of G5U A6U A41C, the self-cleavage is reported as 0.15.
Variant G5C U20A A24U G44A C45G has a self-cleavage of 0.02.
Variant G5U A11C U38G C46G has a self-cleavage of 0.02.
G5C C8A G19A G29A G35U showed a self-cleavage of 0.28.
Variant G5C C23G U32C has a self-cleavage of 0.01.
G5C G30C A41U G44U C45G gave a self-cleavage of 0.
In the case of G5C C15A A24C G36U A41C C46A, the self-cleavage is reported as 0.01.
With G5C G7U U32G G40U the self-cleavage was 0.04.
G5C C23A A26U A39G C42U U43C gave a self-cleavage of 0.01.
G5C C23A C37A showed a self-cleavage of 0.03.
G5C C15G C23U U32A gave a self-cleavage of 0.01.
For G5C G7U G17U G44C, the self-cleavage was 0.12.
G5C C15A G21U G36C showed a self-cleavage of 0.03.
Variant G5C U9C C18A U28G C45U has a self-cleavage of 0.01.
In the case of G5U A6U G7U U9A, the self-cleavage is reported as 0.11.
G5C U28G U34C showed a self-cleavage of 0.01.
G5C U9A G35C showed a self-cleavage of 0.02.
For G5C U20G G22U, the self-cleavage was 0.06.
G5C C18A A26U U34G G36C A41C G44A gave a self-cleavage of 0.
In the case of G5C G19A U32C, the self-cleavage is reported as 0.04.
For G5C G36U C42U, the self-cleavage was 0.01.
With G5C U20A G29U G30A G44C the self-cleavage was 0.04.
G5C A26U G44C showed a self-cleavage of 0.07.
G5C U9G C18U G27C U28C C37G G44C showed a self-cleavage of 0.02.
Variant G5C G35A C46G has a self-cleavage of 0.03.
Work on G5C G36U A41G yielded a self-cleavage of 0.04.
For G5C C13U C23U G35U G40C U43A C45A, the self-cleavage was 0.01.
In the case of G5U A11U C13U A16C U28C G30A, the self-cleavage is reported as 0.03.
With G5U A6U C10G G19U the self-cleavage was 0.01.
G5U A11U C31G showed a self-cleavage of 0.02.
G5C G19A C42A U43C showed a self-cleavage of 0.06.
Variant G5C C13A C37G has a self-cleavage of 0.08.
In the case of G5C C13A C37U, the self-cleavage is reported as 0.05.
With G5U A11C A12U U20C the self-cleavage was 0.02.
In the case of G5C G21U A24C G33U C45G, the self-cleavage is reported as 0.04.
G5C C18A G40U gave a self-cleavage of 0.12.
Variant G5C G22U C23G A25C G27U G30C has a self-cleavage of 0.06.
Work on G5C C8A A24G A39U yielded a self-cleavage of 0.06.
For G5C C37A G44A, the self-cleavage was 0.09.
With G5C U9A C13A A39U G40U the self-cleavage was 0.01.
With G5C C15U U20A C45U the self-cleavage was 0.02.
With G5C U9G G17C G21C A25C U38G the self-cleavage was 0.01.
G5C G30A C37U gave a self-cleavage of 0.05.
G5U A6C G35U G40C showed a self-cleavage of 0.09.
For G5C U9C C13A, the self-cleavage was 0.03.
Work on G5C G19U A25C yielded a self-cleavage of 0.03.
Work on G5C C8U U28G G33C A41C G44U yielded a self-cleavage of 0.02.
Work on G5C C8U A16C G44A yielded a self-cleavage of 0.05.
With G5U A11G U34A G40U the self-cleavage was 0.01.
In the case of G5C G7A G29U C31U, the self-cleavage is reported as 0.04.
In the case of G5C U9A C45U, the self-cleavage is reported as 0.06.
Variant G5C G35A C42G has a self-cleavage of 0.05.
With G5U A11G C18G the self-cleavage was 0.01.
In the case of G5C C18U A25U A41U, the self-cleavage is reported as 0.04.
G5C C10A G35A gave a self-cleavage of 0.04.
G5C C10A G19A C46G showed a self-cleavage of 0.01.
Work on G5C G30C G35C A39G yielded a self-cleavage of 0.01.
G5C C18A U32A gave a self-cleavage of 0.07.
G5C C18U A24C C45U showed a self-cleavage of 0.03.
In the case of G5C G21A G29A G36C G44A, the self-cleavage is reported as 0.03.
Variant G5C A26U G29A G40A A41C C42U U43G G44C C46A has a self-cleavage of 0.01.
G5C C10A A41C gave a self-cleavage of 0.03.
In the case of G5C G17A A24C C46A, the self-cleavage is reported as 0.04.
Work on G5C C8U C23G C42A yielded a self-cleavage of 0.01.
Work on G5C C10U A11U G21A A26C C45A yielded a self-cleavage of 0.03.
Work on G5U A12C A14U U20A C37U yielded a self-cleavage of 0.01.
Work on G5C C13U U20C G22U G27A C45A yielded a self-cleavage of 0.16.
With G5C A26G C37G U38G the self-cleavage was 0.
G5C C15U G35A gave a self-cleavage of 0.01.
In the case of G5C C8A C10G G19C G22A, the self-cleavage is reported as 0.02.
With G5C C10A A26U G27C the self-cleavage was 0.02.
With G5C U20C C23G the self-cleavage was 0.05.
For G5C C10A C18G A26G, the self-cleavage was 0.02.
In the case of G5C C10U G22U, the self-cleavage is reported as 0.06.
Variant G5C C10A C23G G29U C45A has a self-cleavage of 0.01.
G5C G29U A39G showed a self-cleavage of 1.85.
G5U A6G G22C G27C gave a self-cleavage of 0.05.
For G5U A6G G22C G27A, the self-cleavage was 0.03.
Work on G5C C10A C37G yielded a self-cleavage of 0.02.
G5C G29A C31G gave a self-cleavage of 0.04.
Variant G5C C10A C13U G21A C31A has a self-cleavage of 0.04.
Work on G5C C10G G17U yielded a self-cleavage of 0.04.
With G5C C18U G22U G30A the self-cleavage was 0.11.
Variant G5C G7A C8A G44C has a self-cleavage of 0.35.
Work on G5U A6U U20G yielded a self-cleavage of 0.08.
G5C U9A G21A C42U showed a self-cleavage of 0.13.
With G5C G27A U38A the self-cleavage was 0.13.
With G5C G7A A24C C45U the self-cleavage was 0.07.
In the case of G5C C10G A11G, the self-cleavage is reported as 0.03.
G5U A11U G22C C23U U34G gave a self-cleavage of 0.01.
In the case of G5C G19U A41U, the self-cleavage is reported as 0.15.
G5C C8G U9C C10A A26C gave a self-cleavage of 0.01.
With G5C C18A G21U C42U the self-cleavage was 0.01.
In the case of G5C C18G C37U, the self-cleavage is reported as 0.01.
G5U A11U C18A gave a self-cleavage of 0.03.
For G5C C18A U28G, the self-cleavage was 0.01.
